# Out of some 110,000 compounds screened, about 230 (0.21%) showed an effect of 50% or more. Some of the results follow.
# Target: DPAP1 (Plasmodium falciparum, UniProt Q8IIJ9)
# Experiment: primary screen, percent inhibition; read by cleavage of a fluorogenic dipeptide substrate; higher = more effect of the substance
# Design: species or system P. falciparum D10 trophozoite lysates; single well
# 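Also: 30 min substrate incubation versus DMSO and 10 µM JCP410 controls.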
# Sequence of DPAP1 (Q8IIJ9 whole entry, looked up): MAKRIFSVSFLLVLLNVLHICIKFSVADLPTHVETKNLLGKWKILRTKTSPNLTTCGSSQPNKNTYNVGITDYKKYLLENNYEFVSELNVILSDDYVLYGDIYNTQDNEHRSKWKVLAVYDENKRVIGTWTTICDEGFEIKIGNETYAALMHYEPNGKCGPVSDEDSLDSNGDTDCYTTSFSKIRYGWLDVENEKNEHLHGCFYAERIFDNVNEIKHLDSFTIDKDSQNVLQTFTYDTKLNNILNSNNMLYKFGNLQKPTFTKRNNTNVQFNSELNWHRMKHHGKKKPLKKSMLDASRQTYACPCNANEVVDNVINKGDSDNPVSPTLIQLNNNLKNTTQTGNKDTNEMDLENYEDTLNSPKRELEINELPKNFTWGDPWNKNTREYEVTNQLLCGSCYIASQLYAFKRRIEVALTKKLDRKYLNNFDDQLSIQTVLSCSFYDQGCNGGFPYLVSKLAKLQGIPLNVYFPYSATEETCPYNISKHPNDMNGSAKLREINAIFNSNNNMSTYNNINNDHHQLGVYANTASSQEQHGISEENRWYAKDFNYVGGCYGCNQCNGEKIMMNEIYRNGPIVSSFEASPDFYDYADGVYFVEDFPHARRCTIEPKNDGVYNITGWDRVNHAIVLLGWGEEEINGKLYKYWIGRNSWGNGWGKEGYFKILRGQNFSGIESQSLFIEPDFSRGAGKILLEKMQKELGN
row,SMILES,% Inhibition @ 10 uM [%]
1,CCOC(=O)c1c(NC(=O)CSc2nnnn2-c2ccccc2)sc2c1CCCC2,-0.0267
2,NC(=O)c1nc(-c2ccccc2)c(-c2ccccc2)nc1O,4.94
3,CC1CCC(NC(=O)CCc2cn(C)c3ccccc23)CC1 (stereo not shown),1.13
4,CCOC(=O)Cn1nnc2ccccc21,-0.268
5,COc1cc(-c2cc(N)n(S(=O)(=O)c3ccc(F)c(C)c3)n2)cc(OC)c1OC,1.15
6,Cc1ccc(NC(=O)c2ccccc2O)nc1,1.13
7,CCOc1ccc(CCNC(=O)CCCc2nnc3n(C)c(=O)c4sccc4n23)cc1,-6.26
8,COC(=O)c1[nH]nc2c1C(=O)N(C1CCCCC1)C2=O,-3.5
9,Cc1c(CNCc2ccco2)c(C(=O)O)c(C)n1Cc1ccccc1F,-1.92
10,CCCN(CCC)S(=O)(=O)c1ccc(C(=O)N2CCN(C)CC2)cc1,-1.69
11,N#Cc1ccccc1NC(=O)C1CC1c1ccccc1 (stereo not shown),0.716
12,COc1cccc(NS(=O)(=O)c2ccc(OC)c(Cl)c2Cl)c1,-0.0619
13,CCOC(=O)Nc1cccnc1[N+](=O)[O-],-1.97
14,FC(F)(F)c1cccc(N2CCN(Cc3ccsc3)CC2)c1,-0.294
15,Cc1ccc(-c2nn(-c3ccccc3)cc2C2SCC(=O)N2Cc2ccccc2)o1 (stereo not shown),5.59
16,C/C=C(\C)CN(C)CCc1ccccn1,-1.78
17,Cc1cccc(C)c1OCC(O)CN1CCN(c2ccccc2F)CC1 (stereo not shown),5.29
18,CC1=CC(C)(C)N(S(=O)(=O)c2ccc(C)cc2)c2cc(C)ccc21,3.03
19,CCOC(=O)c1sc(N2C(=O)c3oc4ccccc4c(=O)c3C2c2ccc(O)c(OC)c2)nc1C (stereo not shown),2.16
20,CC1=C(C(=O)OCCc2ccccc2)C(c2ccccc2OCc2ccccc2)NC(=O)N1 (stereo not shown),4.1
21,COc1ccccc1C1C2=C(O)CC(C)(C)CC2=NC(C)=C1C(=O)Nc1ccccc1C (stereo not shown),3.05
22,Clc1cccc(OCCCn2ccnc2)c1,-8.75

row,SMILES,% Inhibition @ 10 uM [%]
1,COc1ccc(NC(=O)c2ccc(S(=O)(=O)N3CCCCCC3)cc2)cc1,-12.5
2,Brc1cc(-c2ccccc2)c(CN2CCOCC2)s1,-3.23
3,CC(Cc1ccccc1)NC(=O)c1ccc(Cn2cc(Cl)cn2)o1 (stereo not shown),-2.83
4,CCOC(=O)C1=CN(Cc2ccc(OC)cc2)C=C(C(=O)OCC)C1c1ccccc1Cl,-1.48
5,O=C(Cc1csc2ccccc12)NCCc1ccccc1,-3.53
6,CCOc1ccc(C(=O)C2=C(O)C(=O)N(Cc3cccnc3)C2c2ccc(C)cc2)cc1 (stereo not shown),8.37
7,CN1CCN(C(=O)C2CCCN(S(=O)(=O)N3CCCCC3)C2)CC1 (stereo not shown),-4.68
8,COc1ccc(CCNC(=O)Cn2ncc3c2-c2ccccc2OC3)c(OC)c1,-0.692
9,CCOC(=O)C1CCN(C2CCCC(C)C2)CC1 (stereo not shown),-4.75
10,NC(=O)Cn1c2ccccc2c2nc3n(c(=O)c21)CCS3,1.32
11,C=CCSc1ncc(Cl)c(C(=O)Nc2sc3c(c2C(=O)OC)CCCC3)n1,2.41
12,CC(=O)N/C(=C\c1ccccc1)C(=O)NCc1ccc(Cl)c(Cl)c1,-7.57
13,Nc1no[n+]([O-])c1C(=O)CSc1nnnn1-c1ccccc1,-0.92
14,Cn1cc(CSCC(=O)NCc2ccccc2)cc1C(=O)C(F)(F)F,7.76
15,CN(C)c1ccc(/C=C2\C(=O)NC(=S)N(c3cccc4ccccc34)C2=O)cc1,4.61
16,COc1ccccc1/C=C1\SC(=O)N(CN2CCOCC2)C1=O,-6.79
17,CCCCN(CC)CCNC(=O)CCCn1nc(CC)n2c(cc3oc(C)cc32)c1=O,-3.35
18,CCCC(=O)n1nc(-c2ccccc2)nc1NCc1ccco1,-6.71
19,CC(NC(=O)c1ccc(Cl)cc1)c1ccccc1 (stereo not shown),0.035
20,Cc1ccc2[nH]c(C3=C(N)N(CC4CCCO4)CC3=O)nc2c1 (stereo not shown),0.486
21,O=S1(=O)CC(N2CCOCC2)c2ccccc21 (stereo not shown),0.757
22,Cc1nnc(N2CCC(C(=O)N3CCc4ccccc4C3)CC2)c2nn(-c3ccccc3)c(C)c12,5.5

row,SMILES,% Inhibition @ 10 uM [%]
1,CC(=O)Nc1ccc2oc(-c3cc(F)c(F)cc3Cl)nc2c1,-7.89
2,Cc1ccc2oc(=O)c3cc(C(=O)NC(C)c4ccc5c(c4)OCCO5)sc3c2c1 (stereo not shown),5.74
3,COc1ccc(CCNS(=O)(=O)c2ccc(-c3ccc(O)nn3)s2)cc1OC,-3.26
4,Cn1c(=O)c2c(ncn2C/C=C/c2ccccc2)n(C)c1=O,-1.28
5,O=C1c2ccccc2C(=O)N1CC(=O)n1nc(-c2ccco2)nc1NCc1ccc(Cl)cc1,-6.98
6,Cn1nccc1CNC(=O)c1ccc(COc2ccccc2Cl)cc1,-4.15
7,Cc1ccc(OCC(=O)Nc2ccc(C)c(O)c2)cc1,-0.545
8,O=C(c1ccc(F)cc1)C(CN1CCOCC1)c1ccccc1 (stereo not shown),3.44
9,CN(C)S(=O)(=O)c1ccc(C(=O)Nc2ccccc2-c2nc3ccccc3s2)cc1,-0.424
10,CC[C@@H](C)[C@H](NC(=O)c1ccccc1)C(=O)N[C@@H](CCc1ccccc1)C(=O)CO,6.4
11,COc1ccccc1CNC(=O)Cn1ncc2c3ccccc3n(Cc3ccccc3F)c2c1=O,1.8
12,COc1ccccc1Cn1nnc2c(O)nc(C3CCN(C(=O)Cc4ccc(F)cc4)CC3)nc21,3.81
13,Cc1cccc(C(=O)Nc2scc(CC(C)C)c2C(=O)O)c1,6.51
14,O=C(CN(Cc1ccccc1)S(=O)(=O)c1cc(Cl)ccc1Cl)N1CCCCCC1,-6.02
15,CCn1cc(Br)c(C(=O)Nc2ccccc2OC)n1,-5.69
16,CCc1oc(C(N)=O)cc1COC,9.78
17,Cc1cccc(NC(=O)CN2C(=O)c3cccc4cccc2c34)c1,-9.02
18,COc1ccc(-c2cn(-c3cccc(C)c3)c(O)n2)cc1OC,-2.01
19,CCCO/C(O)=C1\C(C)=NC2=C(C(=O)CC(c3ccc(OC)cc3)C2)C1c1ccccc1F (stereo not shown),3.47
20,Cc1cccn2c(=O)c3cc(C(=O)NCC4COc5ccccc5O4)n(C)c3nc12 (stereo not shown),2.03
